# Laboratory results reported in PubChem BioAssay AID588453 (National Center for Advancing Translational Sciences (NCATS), 2011).
# Screen size: about 390,000 compounds; about 4,000 (1%) were called active. Inconclusive means that the source gave no clear call. Such entries were picked first, then a sample of the others. The call rests on the fitted dose curve; in most records, active means well fitted inhibition curve with a large enough effect; inconclusive means small, poorly fitted or top-dose-only effect; inactive means no such curve, though single readings can be large or run the other way. A potency beside an inconclusive call is a rough fit, not a confirmed value.
# Target: Thioredoxin reductase 1, cytoplasmic (Rattus norvegicus) (UniProt O89049)
# Test: qHTS Assay for Inhibitors of Mammalian Selenoprotein Thioredoxin Reductase 1 (TrxR1): qHTS; further: nearly all actives have a fitted effect of over 65% in size
# Conditions: recombinant rTrxR1, NADPH fluorescence consumption, selenite substrate; series mostly up to 114 µM
# Procedure, shortened: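 Rat TrxR1 (90 nM in the dispensed reagent) was pre-reduced with 400 uM NADPH for 5 min at room temperature, then incubated with compound for 15 min. After 400 uM selenite was added, NADPH fluorescence (Ex 340/Em 450 nm) was followed for 8 min.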
# Potency means the concentration at half of the fitted maximal effect; tags describe the fitted curve by direction and shape.
# Chain of UniProt O89049 (O89049 whole entry, looked up): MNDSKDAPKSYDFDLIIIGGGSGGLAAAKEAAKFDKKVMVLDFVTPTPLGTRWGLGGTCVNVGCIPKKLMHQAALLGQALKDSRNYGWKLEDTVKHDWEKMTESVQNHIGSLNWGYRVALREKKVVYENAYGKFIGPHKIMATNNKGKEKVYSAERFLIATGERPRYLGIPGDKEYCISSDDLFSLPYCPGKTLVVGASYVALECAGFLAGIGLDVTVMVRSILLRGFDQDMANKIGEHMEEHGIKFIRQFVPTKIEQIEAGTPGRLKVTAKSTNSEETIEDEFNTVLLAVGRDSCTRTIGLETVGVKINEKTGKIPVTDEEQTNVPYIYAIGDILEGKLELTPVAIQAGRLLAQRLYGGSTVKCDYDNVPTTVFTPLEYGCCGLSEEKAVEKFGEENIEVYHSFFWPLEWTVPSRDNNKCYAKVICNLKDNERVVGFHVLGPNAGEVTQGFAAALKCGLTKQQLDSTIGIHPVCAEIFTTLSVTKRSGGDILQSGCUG
row,Structure (SMILES),Potency
1,CCN(CC)S(=O)(=O)c1ccc(C)c(NC(=S)Nc2cccc(S(=O)(=O)N3CCCCCC3)c2)c1,"inconclusive: 15.8 µM [inhibitor, full curve]"
2,Cc1ccc(C(=O)/C=C/Nc2ccccc2C(N)=O)o1,"inconclusive: 56.2 µM [inhibitor, partial curve, poor fit]"
3,Cc1occc1C(=O)NCCCCNC(=O)c1ccoc1C,"inconclusive: 56.2 µM [inhibitor, partial curve, poor fit]"
4,COc1cc(C2C(C#N)=C(N)OC3=C2C(=O)CC(C)(C)C3)c([N+](=O)[O-])cc1OC (stereo unspecified),inactive
5,O=C(c1ccco1)N1CCN(C(=O)C2CCCN(S(=O)(=O)c3cccc4nsnc34)C2)CC1 (stereo unspecified),"inconclusive: 3.16 µM [inhibitor, single point]"
6,CCCCN(CC)Cc1ccc(CNC(=S)Nc2ccc(C)cc2Cl)o1,"inconclusive: 12.6 µM [inhibitor, partial curve]"
7,Cc1cc(C(=O)N/N=C2\CCCC(=O)C2)c2ccccc2n1,"inconclusive: 79.4 µM [inhibitor, single point]"
8,COCCn1c(C)cc(C2=NNC(=Nc3ccc(OC)cc3)SC2)c1C,inactive
9,O=C(NCc1ccco1)/C(=C\c1ccco1)NC(=O)c1ccco1,active: 50.1 µM
10,CC(=O)N1c2ccc(S(=O)(=O)N3CCOCC3)cc2CC1C (stereo unspecified),inactive
11,Cc1ccccc1N(CC(=O)N/N=C/c1ccc(Cl)cc1)C(=O)c1ccccc1,inactive
12,CCc1c(C)nc2ncnn2c1N1CCCC(C(=O)Nc2ccc(NC(C)=O)cc2)C1 (stereo unspecified),"inconclusive: 44.7 µM [inhibitor, partial curve, poor fit]"
13,N/C(=N\NC(=O)c1ccccc1Cl)c1cc2ccccc2oc1=O,"inconclusive: 89.1 µM [inhibitor, partial curve, poor fit]"
14,Cc1cc(C)c(NC(=O)CCCn2c(C)c3cnn(-c4ccccc4)c(=O)c3c2C)c(C)c1,"inconclusive: 79.4 µM [inhibitor, partial curve]"
15,COc1cccc2cc(-c3nc(-c4cccs4)cs3)c(=O)oc12,"inconclusive: 14.1 µM [inhibitor, partial curve, poor fit]"
16,COC(=O)C1C(=O)C2=C(CC1C)NC(C)=C(C(=O)OCc1ccc(OC)cc1)C2c1ccc(C)o1 (stereo unspecified),"inconclusive: 25.1 µM [inhibitor, full curve]"
17,Cc1ccc2c(c1)S/C(=C\c1cccc[n+]1C)N2CCO,inactive
18,COC(=O)c1ccc(CC(=O)c2ccc(O)cc2O)o1,"inconclusive: 44.7 µM [inhibitor, partial curve, poor fit]"
19,O=C(Cn1nc(Cl)nc1Cl)c1cc2ccccc2oc1=O,"inconclusive: 44.7 µM [inhibitor, single point]"
20,Cc1cccc(N2C(=O)/C(=C\c3ccc(C(=O)O)cc3)c3ccccc3C2=O)c1,"inconclusive: 31.6 µM [inhibitor, single point]"
21,COc1cc(/C=C(/C#N)c2nc3ccccc3[nH]2)ccc1OCc1ccc(C(=O)O)o1,"inconclusive: 79.4 µM [inhibitor, single point]"
22,CCOC(=O)c1c(C)oc2c1c(CN1CCN(CCO)CC1)c(O)c1ccccc12,active: 1.12 µM

row,Structure (SMILES),Potency
1,O=C(c1ccc(F)cc1)n1nc(-c2cccnc2)nc1NCc1ccc(F)cc1,inactive
2,CC1(C)Cc2c(sc3[nH]c(=S)n(Cc4ccccc4)c(=O)c23)CO1,"inconclusive: 14.1 µM [inhibitor, partial curve]"
3,COc1ccc(CCNC(=O)Cn2cc(S(=O)(=O)Cc3ccccc3Cl)c3ccccc32)cc1OC,"inconclusive: 89.1 µM [inhibitor, partial curve, poor fit]"
4,Cc1ccc(C(=O)NC(=S)Nc2ccc3c(c2)OCCO3)c(C)c1,"inconclusive: 31.6 µM [inhibitor, full curve, poor fit]"
5,CCOC(=O)N1CC=C2C(C#N)=C(N)C(C#N)(C#N)[C@H](c3ccccc3OCC)[C@H]2C1,active: 50.1 µM
6,Cc1nc2cc(NC(=O)Nc3ccc(Br)cc3)ccc2o1,"inconclusive: 22.4 µM [inhibitor, single point]"
7,FC(F)Oc1ccc(NC(=S)NC23CC4CC(CC(C4)C2)C3)cc1,inactive
8,COc1ccc(-c2cc(OC(=O)c3cccc(Cl)c3)c3c(C)oc(C)c3c(=O)c2)cc1,"inconclusive: 56.2 µM [inhibitor, partial curve, poor fit]"
9,CC(=O)Nc1ccc(S(=O)(=O)N(Cc2ccco2)CC2CCCO2)cc1 (stereo unspecified),"inconclusive: 79.4 µM [inhibitor, partial curve, poor fit]"
10,CN1CCCCc2c1nc1c(c2N)CCCC1,inactive
11,O=C(Nc1ccc(Cl)cc1)/C(=C/c1cccc(O)c1)c1nc2ccccc2s1,inactive
12,O=C1c2ccccc2C(=O)N1CCC(c1ccccc1)c1ccco1 (stereo unspecified),"inconclusive: 89.1 µM [inhibitor, single point]"
13,CCOC(=O)C1CCN(C(=O)CSCc2nc(-c3ccc(OCC)cc3)oc2C)CC1,"inconclusive: 79.4 µM [inhibitor, partial curve, poor fit]"
14,c1ccc(COc2ncnc3c2ncn3CCCNCc2ccccn2)cc1,inactive
15,CN1c2ccccc2C(O)=C(C(=S)Nc2ccc(Cl)cc2)S1(=O)=O,"inconclusive: 15.8 µM [inhibitor, full curve, poor fit]"
16,Cc1ccc(NC(=S)NNC(=O)c2nnn(-c3ccccc3)c2C)cc1,"inconclusive: 89.1 µM [inhibitor, single point]"
17,CS(=O)(=O)N(CC(=O)Nc1ccc(S(=O)(=O)N2CCCC2)cc1)c1ccccc1,"inconclusive: 6.31 µM [inhibitor, single point]"
18,CCOc1ccc(CCNC(=O)c2[nH]c(C)c(C(C)=O)c2CC)cc1OCC,"inconclusive: 89.1 µM [inhibitor, partial curve, poor fit]"
19,C=CCc1cccc(C=Nc2cc(Br)ccc2O)c1O,inactive
20,Fc1ccc(N/N=C2/CCSc3sccc32)c(F)c1,"inconclusive: 25.1 µM [inhibitor, single point]"
21,CCN(CC)c1ccc(C=C2C(=O)OC3(CCCC3)OC2=O)cc1,"inconclusive: 12.6 µM [inhibitor, full curve, poor fit]"
22,Cc1ccc2cccc(Oc3ccc([N+](=O)[O-])cc3[N+](=O)[O-])c2n1,"inconclusive: 79.4 µM [inhibitor, single point]"

row,Structure (SMILES),Potency
1,CCOC(=O)C1=C(C(F)(F)F)Nc2ncnn2C1c1ccc(OC)cc1OC (stereo unspecified),"inconclusive: 50.1 µM [inhibitor, partial curve, poor fit]"
2,COc1ccc(CN(CC2CCC(C(=O)O)CC2)C(=S)Nc2ccccc2C)cc1 (stereo unspecified),"inconclusive: 89.1 µM [inhibitor, partial curve, poor fit]"
3,O=C(CCc1ccc(O)c(O)c1)N/N=C/c1cc2c(cc1[N+](=O)[O-])OCO2,"inconclusive: 15.8 µM [inhibitor, full curve]"
4,COc1ccc2[nH]c(=O)c(CN(Cc3ccco3)C(c3nnnn3Cc3ccccc3)C(C)C)cc2c1 (stereo unspecified),"inconclusive: 28.2 µM [inhibitor, single point]"
5,O=S(=O)(CCSc1nc2ccccc2s1)c1nc2ccccc2s1,"inconclusive: 50.1 µM [inhibitor, partial curve, poor fit]"
6,CC(=O)Nc1nc2ccc(-c3nc4ccccc4o3)cc2s1,"inconclusive: 89.1 µM [inhibitor, partial curve, poor fit]"
7,CCn1cc(C(=O)NCc2ccco2)c(=O)c2cc(F)c(N3CCN(C(=O)c4ccco4)CC3)cc21,"inconclusive: 15.8 µM [inhibitor, full curve]"
8,COc1ccc(C2C(C(=O)c3ccco3)=C(O)C(=O)N2CC2CCCO2)cc1OC (stereo unspecified),inactive
9,COc1ccc(OC)c(C(c2c(O)nc(SC)[nH]c2=O)c2c(O)nc(SC)[nH]c2=O)c1,"inconclusive: 15.8 µM [inhibitor, partial curve]"
10,Cc1ccccc1Nc1cc2ccccc2c(=O)[nH]1,"inconclusive: 3.55 µM [inhibitor, full curve]"
11,CN1CCN(CCCNC(=O)Cn2c(-c3cccs3)cc3cc(Cl)ccc32)CC1,inactive
12,O=C(C1=C(O)C(=O)N(CCN2CCOCC2)C1c1ccco1)c1cc2ccccc2o1 (stereo unspecified),"inconclusive: 50.1 µM [inhibitor, partial curve]"
13,CN(C)Cc1c(O)c(Cl)cc2c3c(c(=O)oc12)CCCC3,"inconclusive: 39.8 µM [inhibitor, full curve, poor fit]"
14,CCn1c2ccc(C)cc2c2nc3cc(C(=O)O)ccc3nc21,inactive
15,COc1ccccc1/C=N/n1cnnc1,inactive
16,COC(=O)C(Cc1c[nH]c2ccccc12)NC(C)=O (stereo unspecified),inactive
17,CCCCN1C(=O)/C(=C(/C#N)C(=O)N2CCCC2)c2ccccc21,inactive
18,O=C(Oc1ccc(Br)cc1C(=S)N1CCOCC1)c1cccc([N+](=O)[O-])c1,"inconclusive: 39.8 µM [inhibitor, partial curve, poor fit]"
19,CCCc1[nH]nc2c1C(c1ccc(O)c(OC)c1)C(C#N)=C(N)O2 (stereo unspecified),"inconclusive: 0.126 µM [inhibitor, full curve, poor fit]"
20,Cc1ccc(O)c(NC(=S)NC(=O)C(C)C)c1,inactive
21,O=Cc1cccc(OC(=O)/C=C/c2ccco2)c1,active: 31.6 µM
22,CC(=O)N1CCc2c(sc(NC(=O)CCS(=O)(=O)c3ccccc3)c2C#N)C1,"inconclusive: 70.8 µM [inhibitor, single point]"
